The other results are listed elsewhere or left out.
Biological target: T1, MBP-FoxP1dN (Mus musculus, UniProt P58462 326-579)
T1 sequence: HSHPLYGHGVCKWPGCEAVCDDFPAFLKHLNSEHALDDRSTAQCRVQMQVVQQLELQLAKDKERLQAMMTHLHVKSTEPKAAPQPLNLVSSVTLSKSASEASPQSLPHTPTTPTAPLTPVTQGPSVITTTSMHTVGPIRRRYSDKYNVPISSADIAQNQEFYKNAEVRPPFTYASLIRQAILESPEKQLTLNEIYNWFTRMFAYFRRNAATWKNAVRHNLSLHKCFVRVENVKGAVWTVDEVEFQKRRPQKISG
Assay: PD-seq (MBP pull-down with sequencing); 20 mM Tris-HCl pH 7.5, 100 mM NaCl, 1.5 mM MgCl2, 0.4 uM protein, 0.1 uM dsDNA library, 30 min, room temperature, amylose pull-down; high values mean tight binding
Settings: protein: recombinant; tags: His6-MBP; chain copies: 2; dsDNA, one strand shown
In short: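 E. coli-expressed mouse FoxP3 or FoxP1 fragment, N-terminus removed and tagged with His6-MBP, was used at 0.4 µM against 0.1 µM of a Klenow-filled degenerate double-stranded DNA library. After 30 min at room temperature in Tris pH 7.5 buffer with NaCl and MgCl2, complexes were pulled down on amylose resin and washed three times. Binding is pull-down over input reads-per-million enrichment from pooled replicates of the proteinase K-released, PCR-barcoded, Illumina-sequenced DNA.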

Row | Sequence | binding signal
1 | GATGATTGTTCTCCCAGCTGATGAATTGGCGTCTTCGAGTAAACAAATTTTCCTAATCTTTCTGTTCAAGCGCCATCTAC | 0.91 RPM ratio (pull-down/input)
2 | GATGATTGTTCTCCCAGCTGATGAATTCCTTCATTCGAGTAAACAAATTTTCCTAATCTTTCTGTTCAAGCGCCATCTAC | 0.85 RPM ratio (pull-down/input)
3 | GATGATTGTTCTCCCAGCTGATGAATTTAGATCCTCGAGTAAACAAATTTTCCTAATCTTTCTGTTCAAGCGCCATCTAC | 0.952 RPM ratio (pull-down/input)
4 | GATGATTGTTCTCCCAGCTGATGAATTATATAGCTCGAGTAAACAAATTTTCCTAATCTTTCTGTTCAAGCGCCATCTAC | 0.971 RPM ratio (pull-down/input)
5 | GATGATTGTTCTCCCAGCTGATGAATTTGAATTTTCGAGTAAACAAATTTTCCTAATCTTTCTGTTCAAGCGCCATCTAC | 0.948 RPM ratio (pull-down/input)
6 | GATGATTGTTCTCCCAGCTGATGAATTTATAGGATCGAGTAAACAAATTTTCCTAATCTTTCTGTTCAAGCGCCATCTAC | 1.08 RPM ratio (pull-down/input)
7 | GATGATTGTTCTCCCAGCTGATGAATTTACGCCATCGAGTAAACAAATTTTCCTAATCTTTCTGTTCAAGCGCCATCTAC | 1.21 RPM ratio (pull-down/input)
8 | GATGATTGTTCTCCCAGCTGATGAATTTTGTCTATCGAGTAAACAAATTTTCCTAATCTTTCTGTTCAAGCGCCATCTAC | 1.36 RPM ratio (pull-down/input)
9 | GATGATTGTTCTCCCAGCTGATGAATTCTGGGAGTCGAGTAAACAAATTTTCCTAATCTTTCTGTTCAAGCGCCATCTAC | 0.797 RPM ratio (pull-down/input)
10 | GATGATTGTTCTCCCAGCTGATGAATTTCGTTGCTCGAGTAAACAAATTTTCCTAATCTTTCTGTTCAAGCGCCATCTAC | 0.942 RPM ratio (pull-down/input)
11 | GATGATTGTTCTCCCAGCTGATGAATTGTCGACCTCGAGTAAACAAATTTTCCTAATCTTTCTGTTCAAGCGCCATCTAC | 0.877 RPM ratio (pull-down/input)
12 | GATGATTGTTCTCCCAGCTGATGAATTCGGGAGATCGAGTAAACAAATTTTCCTAATCTTTCTGTTCAAGCGCCATCTAC | 0.825 RPM ratio (pull-down/input)
13 | GATGATTGTTCTCCCAGCTGATGAATTGCTGAATTCGAGTAAACAAATTTTCCTAATCTTTCTGTTCAAGCGCCATCTAC | 1.05 RPM ratio (pull-down/input)
14 | GATGATTGTTCTCCCAGCTGATGAATTAAGTCCGTCGAGTAAACAAATTTTCCTAATCTTTCTGTTCAAGCGCCATCTAC | 0.896 RPM ratio (pull-down/input)
15 | GATGATTGTTCTCCCAGCTGATGAATTGATAGAGTCGAGTAAACAAATTTTCCTAATCTTTCTGTTCAAGCGCCATCTAC | 0.901 RPM ratio (pull-down/input)
16 | GATGATTGTTCTCCCAGCTGATGAATTGGTATGCTCGAGTAAACAAATTTTCCTAATCTTTCTGTTCAAGCGCCATCTAC | 1.03 RPM ratio (pull-down/input)
17 | GATGATTGTTCTCCCAGCTGATGAATTTGTAGGATCGAGTAAACAAATTTTCCTAATCTTTCTGTTCAAGCGCCATCTAC | 1.02 RPM ratio (pull-down/input)
18 | GATGATTGTTCTCCCAGCTGATGAATTACAATGCTCGAGTAAACAAATTTTCCTAATCTTTCTGTTCAAGCGCCATCTAC | 1.43 RPM ratio (pull-down/input)
19 | GATGATTGTTCTCCCAGCTGATGAATTTGTTGCATCGAGTAAACAAATTTTCCTAATCTTTCTGTTCAAGCGCCATCTAC | 1.84 RPM ratio (pull-down/input)
20 | GATGATTGTTCTCCCAGCTGATGAATTGTCGCCATCGAGTAAACAAATTTTCCTAATCTTTCTGTTCAAGCGCCATCTAC | 1.03 RPM ratio (pull-down/input)

Row | Sequence | binding signal
21 | GATGATTGTTCTCCCAGCTGATGAATTCTTGCCTTCGAGTAAACAAATTTTCCTAATCTTTCTGTTCAAGCGCCATCTAC | 0.923 RPM ratio (pull-down/input)
22 | GATGATTGTTCTCCCAGCTGATGAATTAGCTGCTTCGAGTAAACAAATTTTCCTAATCTTTCTGTTCAAGCGCCATCTAC | 0.894 RPM ratio (pull-down/input)
23 | GATGATTGTTCTCCCAGCTGATGAATTAGATTGGTCGAGTAAACAAATTTTCCTAATCTTTCTGTTCAAGCGCCATCTAC | 0.947 RPM ratio (pull-down/input)
24 | GATGATTGTTCTCCCAGCTGATGAATTCAACTGTTCGAGTAAACAAATTTTCCTAATCTTTCTGTTCAAGCGCCATCTAC | 0.939 RPM ratio (pull-down/input)
25 | GATGATTGTTCTCCCAGCTGATGAATTCCACACCTCGAGTAAACAAATTTTCCTAATCTTTCTGTTCAAGCGCCATCTAC | 0.826 RPM ratio (pull-down/input)
26 | GATGATTGTTCTCCCAGCTGATGAATTGCTTTATTCGAGTAAACAAATTTTCCTAATCTTTCTGTTCAAGCGCCATCTAC | 1.19 RPM ratio (pull-down/input)
27 | GATGATTGTTCTCCCAGCTGATGAATTGTTTCATTCGAGTAAACAAATTTTCCTAATCTTTCTGTTCAAGCGCCATCTAC | 1.23 RPM ratio (pull-down/input)
28 | GATGATTGTTCTCCCAGCTGATGAATTATGGACATCGAGTAAACAAATTTTCCTAATCTTTCTGTTCAAGCGCCATCTAC | 1.04 RPM ratio (pull-down/input)
29 | GATGATTGTTCTCCCAGCTGATGAATTATTTCCTTCGAGTAAACAAATTTTCCTAATCTTTCTGTTCAAGCGCCATCTAC | 1.04 RPM ratio (pull-down/input)
30 | GATGATTGTTCTCCCAGCTGATGAATTTTGAGTCTCGAGTAAACAAATTTTCCTAATCTTTCTGTTCAAGCGCCATCTAC | 0.825 RPM ratio (pull-down/input)
31 | GATGATTGTTCTCCCAGCTGATGAATTAGCTCTTTCGAGTAAACAAATTTTCCTAATCTTTCTGTTCAAGCGCCATCTAC | 0.891 RPM ratio (pull-down/input)
32 | GATGATTGTTCTCCCAGCTGATGAATTGCAGTCCTCGAGTAAACAAATTTTCCTAATCTTTCTGTTCAAGCGCCATCTAC | 0.935 RPM ratio (pull-down/input)
33 | GATGATTGTTCTCCCAGCTGATGAATTGCATATTTCGAGTAAACAAATTTTCCTAATCTTTCTGTTCAAGCGCCATCTAC | 1.4 RPM ratio (pull-down/input)
34 | GATGATTGTTCTCCCAGCTGATGAATTTGGCATCTCGAGTAAACAAATTTTCCTAATCTTTCTGTTCAAGCGCCATCTAC | 1.05 RPM ratio (pull-down/input)
35 | GATGATTGTTCTCCCAGCTGATGAATTCCCTGAGTCGAGTAAACAAATTTTCCTAATCTTTCTGTTCAAGCGCCATCTAC | 0.779 RPM ratio (pull-down/input)
36 | GATGATTGTTCTCCCAGCTGATGAATTCTGTGCATCGAGTAAACAAATTTTCCTAATCTTTCTGTTCAAGCGCCATCTAC | 1.2 RPM ratio (pull-down/input)
37 | GATGATTGTTCTCCCAGCTGATGAATTTAGACAATCGAGTAAACAAATTTTCCTAATCTTTCTGTTCAAGCGCCATCTAC | 1.53 RPM ratio (pull-down/input)
38 | GATGATTGTTCTCCCAGCTGATGAATTTCCATTGTCGAGTAAACAAATTTTCCTAATCTTTCTGTTCAAGCGCCATCTAC | 0.931 RPM ratio (pull-down/input)
39 | GATGATTGTTCTCCCAGCTGATGAATTCTGTAAATCGAGTAAACAAATTTTCCTAATCTTTCTGTTCAAGCGCCATCTAC | 1.18 RPM ratio (pull-down/input)
40 | GATGATTGTTCTCCCAGCTGATGAATTCTTCAAGTCGAGTAAACAAATTTTCCTAATCTTTCTGTTCAAGCGCCATCTAC | 0.861 RPM ratio (pull-down/input)
